In the supplement of paper PMC4166925:
± gives the standard deviation of the averaged measurements. The full ranking holds about 33,000 sequences; the median of “E-score (dimensionless, -0.5 to 0.5)” is about -0.046, and the highest 2% start at about 0.36. This is one part of the list.

The sequences below were run on T1, SpTbr T-box DNA-binding domain (GST fusion) (assay: PBM E-score of 8-mer (E-score (dimensionless, -0.5 to 0.5)); Tbr is Tbrain of the sea star Patiria miniata (Pm) or the sea urchin Strongylocentrotus purpuratus (Sp); higher = stronger binding preference; most listed sequences are background and not binding sites). Details: the construct has about 5 more residues each side.
T1 sequence: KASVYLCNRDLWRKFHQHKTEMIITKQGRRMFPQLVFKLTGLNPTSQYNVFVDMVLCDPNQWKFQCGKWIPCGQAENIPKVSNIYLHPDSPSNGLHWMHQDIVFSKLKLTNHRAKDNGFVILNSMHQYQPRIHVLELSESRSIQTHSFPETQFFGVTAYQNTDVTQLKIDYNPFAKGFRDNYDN
Description: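 Universal protein-binding microarray (Agilent AMADID 016060, 60-bp probes with a 35-bp variable region) incubated with 200 nM GST-fused Strongylocentrotus purpuratus Tbr T-box DNA-binding domain (residues 362-554) in PBS pH 7.5. Scored for every ungapped 8-mer (given with its reverse complement) as E-score (range -0.5 to 0.5; >0.45 counts as bound) and Z-score of median probe intensity. Two replicate arrays (datasets 1 and 2).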
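Note: protein at 200 nM in PBS on universal double-stranded arrays.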

Sequence	PBM E-score of 8-mer
GCAGGGGC	-0.13 ± 0.0028
AGAAACCG	-0.0862 ± 0.051
GTCTGATA	-0.105 ± 0.052
TATTGGAA	-0.282 ± 0.012
ACTTTACA	0.204 ± 0.013
ATTGCCGG	0.0152 ± 0.0069
CAGCGCAC	0.138 ± 0.047
AGGCTCGG	-0.0308 ± 0.0026
CGCTCTAC	-0.123 ± 0.037
CGGATAAA	-0.209 ± 0.02
CCCGACTA	0.111 ± 0.058
TATGATAA	-0.00343 ± 0.017
AAACGCAT	-0.185 ± 0.034
TCGGGAAA	-0.124 ± 0.027
GTCTAATA	-0.0116 ± 0.0076
ATAATCAA	0.0106 ± 0.094
CCATCCGA	-0.284 ± 0.087
ATTTGACA	0.304 ± 0.012
GCAATTTA	-0.0618 ± 0.055
AGAGTGCC	0.0261 ± 0.019
CGGCGGAG	-0.11 ± 0.089
CTAAGGGC	0.0508 ± 0.014

Sequence	PBM E-score of 8-mer
GATCGCTA	0.136 ± 0.022
GCACTGGA	-0.0463 ± 0.011
AAAGTAGA	-0.0436 ± 0.055
CTCGACGA	0.0119 ± 0.036
CCTGCTCG	-0.0929 ± 0.043
GCCAATCC	-0.0232 ± 0.048
CTCAGGGA	-0.142 ± 0.043
ATGCGGCA	0.0699 ± 0.0036
ACGTATAG	-0.0367 ± 0.13
AACTTACC	-0.026 ± 0.0042
GACTAAAA	-0.128 ± 0.062
CTAACAAC	0.348 ± 0.029
GTTTCCAA	-0.0728 ± 0.051
AGTCCCTA	-0.138 ± 0.034
GGGTCAAA	-0.256 ± 0.084
ATGCGCAG	-0.191 ± 0.0042
ATAGGATA	-0.229 ± 0.011
CGGGGCGC	0.111 ± 0.036
ACGGCGGG	-0.0323 ± 0.039
GGAGCAAA	-0.162 ± 0.071
CAAGCCTC	-0.0517 ± 0.044
TTCAGAAA	-0.292 ± 0.024

Sequence	PBM E-score of 8-mer
AACAGGCC	-0.0465 ± 0.036
ATGTAATG	-0.284 ± 0.014
CCAAACCC	-0.078465 ± 7.1e-06
ACCTCAAT	-0.102 ± 0.016
TAATTGGA	0.0699 ± 0.024
AAGTTTCG	-0.142 ± 0.013
AAGTGATA	0.288 ± 0.043
AGTACTTG	0.00872 ± 0.051
CGAATATA	-0.171 ± 0.04
CGATCAGA	-0.0767 ± 0.051
CACGGAGA	-0.0446 ± 0.025
AACATGTT	0.0214 ± 0.024
CGGGCACA	0.073 ± 0.043
CTCCAGGA	-0.0597 ± 0.01
GCCGATAA	0.0286 ± 0.1
CGACCGCC	-0.0506 ± 0.061
TAAAATCA	0.0847 ± 0.029
GTTAAGTA	0.117 ± 0.05
CTCATATA	-0.0945 ± 0.032
CGCATCCC	0.0091 ± 0.11
AATATCGA	-0.0563 ± 0.022
CACGGGAG	-0.0883 ± 0.02

Sequence	PBM E-score of 8-mer
CAGCCGAA	-0.299 ± 0.039
ACGGGCCT	-0.296 ± 0.0042
CGCCGGTA	-0.00991 ± 0.076
AAACTATT	-0.123 ± 0.063
GATCCGGC	-0.187 ± 0.079
CGCGAAAC	0.344 ± 0.0048
CGTACGTA	-0.114 ± 0.0038
AGCGCAGA	-0.0856 ± 0.07
GCATTCCA	-0.141 ± 0.0076
ATGGTGAA	0.0718 ± 0.0071
AAAACTAA	-0.0381 ± 0.053
CTGATGCA	0.0385 ± 0.021
ATGAATCC	0.00992 ± 0.056
ATCTTTAG	-0.022 ± 0.032
CCACTCGG	0.0776 ± 0.073
TATACGCA	0.00075 ± 0.05
AGTCGCGC	0.258 ± 0.038
CCGATGAC	-0.015 ± 0.015
CGTCCTGC	-0.234 ± 0.0096
CGATGACC	0.112 ± 0.026
